Reference: PubChem BioAssay AID588591 (National Center for Advancing Translational Sciences (NCATS), 2011)
About 4,700 (1.2%) of roughly 390,000 compounds were called active. Inconclusive results, whose numbers are uncertain, are shown with a selection of clear calls. The call rests on the fitted dose curve; in most records, active means well fitted inhibition curve with a large enough effect; inconclusive means small, poorly fitted or top-dose-only effect, or another doubt; inactive means no such curve, though single readings can be large or run the other way. Potencies of inconclusive entries are doubtful fits and often do not repeat.

target: DNA polymerase eta (Homo sapiens) (UniProt Q9Y253); assay: qHTS for Inhibitors of Polymerase Eta; settings: recombinant Pol eta, fluorescent DNA replication assay; series mostly up to 114 µM; activity change, negative = inhibition: at the top concentration
Chain of UniProt Q9Y253 (Q9Y253 whole entry, looked up): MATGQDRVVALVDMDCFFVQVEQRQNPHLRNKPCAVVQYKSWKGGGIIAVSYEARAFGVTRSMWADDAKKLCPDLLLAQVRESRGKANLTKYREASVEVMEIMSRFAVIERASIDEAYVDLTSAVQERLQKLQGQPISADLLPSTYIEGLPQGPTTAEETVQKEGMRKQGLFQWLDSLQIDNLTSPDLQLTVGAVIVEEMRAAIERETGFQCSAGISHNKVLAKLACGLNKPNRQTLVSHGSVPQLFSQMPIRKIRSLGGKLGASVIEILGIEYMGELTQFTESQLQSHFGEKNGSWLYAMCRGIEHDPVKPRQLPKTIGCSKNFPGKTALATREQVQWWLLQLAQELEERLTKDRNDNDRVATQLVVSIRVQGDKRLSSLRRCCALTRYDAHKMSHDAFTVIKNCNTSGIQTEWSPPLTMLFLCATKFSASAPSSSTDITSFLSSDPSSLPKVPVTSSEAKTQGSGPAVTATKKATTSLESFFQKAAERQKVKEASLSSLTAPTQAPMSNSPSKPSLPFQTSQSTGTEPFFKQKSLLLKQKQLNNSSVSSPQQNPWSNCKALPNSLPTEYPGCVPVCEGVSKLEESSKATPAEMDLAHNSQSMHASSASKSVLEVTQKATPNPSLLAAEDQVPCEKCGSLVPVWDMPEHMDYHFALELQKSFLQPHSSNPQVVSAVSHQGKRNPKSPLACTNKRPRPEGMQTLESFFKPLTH
How it was run: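 Pol eta (10 nM) was preincubated with compounds for 15 min at room temperature, after which fluorescent replication substrate (50 nM final) was added to start the reaction. Fluorescence was read kinetically at 0 and 10 min.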
On the % scale 0 is the no-effect control and ±100 the full control effect; potency means the concentration at half of the fitted maximal effect; tags describe the fitted curve by direction and shape.

SMILES | activity change, negative = inhibition | Potency
O=S(=O)(NCC1CCN(S(=O)(=O)c2ccccc2)CC1)c1ccccc1 | inactive: -10.6% | –
Cc1ccc(N2CC(NC(=O)Cc3cccs3)CC2=O)cc1 (centres undefined) | inactive: -13.2% | –
Cc1oc2c(C)c(O)ccc2c(=O)c1-c1cnn(-c2ccccc2)c1 | – | inconclusive: 25.1 µM [inhibitor, partial curve, poor fit]
COc1ccc(CC(=O)NNC(=O)COc2ccc3ccccc3c2)cc1 | – | inconclusive: 14.1 µM [inhibitor, partial curve]
c1ccc(-c2cc(-c3ccccc3)c3c(n2)-c2ccccc2OC3)cc1 | inactive: -15.2% | –
COc1ccc(-n2nc(C(=O)Nc3ccc(OC)c(OC)c3)c3c4ccccc4n(C)c3c2=O)cc1 | – | inconclusive: 100 µM [inhibitor, partial curve, poor fit]
Cc1ccc(CCNC(=O)c2cc3c(s2)-c2ccccc2OC3)cc1 | – | inconclusive: 79.4 µM [inhibitor, partial curve]
NC(=O)C1CCN(CC(=O)Nc2ccc3c(c2)OCCO3)CC1 | – | inconclusive: 100 µM [inhibitor, single point]
Cc1cc(C)c2nc3nc(C)cc(C)c3c(N)c2c1 | – | inconclusive: 25.1 µM [inhibitor, partial curve, poor fit]
O=C1NC(=S)N/C1=C/C=C/c1ccccc1 | inactive: -8.29% | –
COC(=O)CSc1nc2sc3c(c2c(=O)[nH]1)CCC3 | – | inconclusive: 22.4 µM [inhibitor, full curve]
O=C(Nc1nc2c(s1)CCc1ccccc1-2)c1ccco1 | – | inconclusive: 1.26 µM [inhibitor, full curve, poor fit]
COc1ccc(C[C@@H]2OC3(C=CC(=O)C=C3)O[C@H]2Cc2ccc(OC)cc2)cc1 | – | inconclusive: 22.4 µM [inhibitor, partial curve, poor fit]
COc1cccc(N(CC(=O)NC(C)(C)C)C(=O)C2CSC(=O)C2)c1 (centres undefined) | inactive: -5.78% | –
Cc1[nH]c(=O)[nH]c(=O)c1S(=O)(=O)Nc1cccc(Cl)c1C | inactive: -17.3% | –
O=C(CSc1ccc(-c2ccco2)nn1)c1ccc(F)cc1 | – | inconclusive: 25.1 µM [inhibitor, partial curve, poor fit]
Cc1occc1C(=O)Nc1cccc(/C=C/C(=O)O)c1 | – | active: 17.8 µM
COc1ccc(CNC(=O)COC(=O)c2cc(C)nc3ccccc23)cc1 | inactive: 0.673% | –
Cc1nc2ccc(NC(=O)c3cc([N+](=O)[O-])cc([N+](=O)[O-])c3Cl)cc2s1 | – | inconclusive: 15.8 µM [inhibitor, partial curve, poor fit]
COC(=O)c1ccc(NCc2cc(O)ccc2O)cc1 | – | inconclusive: 22.4 µM [inhibitor, partial curve]
Cc1c(Cl)c(=O)oc2cc(OCC(=O)N3CCCC(C)C3)ccc12 (centres undefined) | inactive: -9.91% | –
CCOc1cc(/C=C2\SC(=O)N(CC(=O)Nc3ccccc3F)C2=O)cc([N+](=O)[O-])c1O | – | inconclusive: 31.6 µM [inhibitor, single point]

SMILES | activity change, negative = inhibition | Potency
Cc1ccc(/C=C(\C#N)C(=O)Nc2cccc3ncccc23)o1 | – | inconclusive: 15.8 µM [inhibitor, partial curve, poor fit]
CCOC(=O)C1=C(COC(=O)/C=C/c2ccco2)NC(=O)NC1C (centres undefined) | – | active: 11.2 µM
CC12CCC(=O)N1C(C(=O)Nc1ccc(SC(F)F)cc1)CS2 (centres undefined) | inactive: -15.7% | –
COc1ccc(Nc2nc(N3CCCC3)c3ccccc3n2)cc1 | inactive: -28.8% | –
COc1ccc2cc3cc(C(=O)NCc4cccs4)oc3nc2c1 | – | inconclusive: 11.2 µM [inhibitor, full curve, poor fit]
COc1ccc(OC)c(NC(=O)Cn2nc3c(cc2=O)CCCC3)c1 | inactive: -6.01% | –
COc1cc(CNCc2ccccn2)ccc1OCc1ccc(Cl)c(Cl)c1 | – | inconclusive: 89.1 µM [inhibitor, partial curve, poor fit]
CCOc1ccc2oc(C(=O)N(CC)CC(=O)Nc3ccc(NC(C)=O)cc3)c(C)c2c1 | – | inconclusive: 31.6 µM [inhibitor, partial curve, poor fit]
CC(C)CC(=O)Nc1ccc(C(=O)NNC(=O)C(c2ccccc2)c2ccccc2)cc1 | inactive: -4.62% | –
COC(=O)c1sc(N)c(C(=O)OC)c1Cn1ncc(Cl)c(Cl)c1=O | – | inconclusive: 50.1 µM [inhibitor, partial curve]
COc1ccc(N/C(=N\c2nc(C)cc(C)n2)NC(C)=O)cc1OC | – | inconclusive: 17.8 µM [inhibitor, partial curve, poor fit]
Cc1ccc(C(=O)NCC(C)NC(=O)c2ccc(C)c(C)c2)cc1C (centres undefined) | inactive: -5.78% | –
COc1ccc(OC)c(C2=C/C(=C/c3ccccn3)C(=O)O2)c1 | – | inconclusive: 28.2 µM [inhibitor, partial curve, poor fit]
CC(OC(=O)CCC1CCCCC1)C(=O)Nc1ccc(S(N)(=O)=O)cc1 (centres undefined) | – | inconclusive: 89.1 µM [inhibitor, single point]
Cc1c(C(=O)N2CCN(C(=O)c3ccccc3)CC2)oc2ccc(F)cc12 | – | inconclusive: 39.8 µM [inhibitor, partial curve]
NC(=O)NC(=O)CN1c2cccc3cccc(c23)S1(=O)=O | – | inconclusive: 44.7 µM [inhibitor, full curve]
COc1ccc(/C=C2\SC(=S)N(CCCC(=O)Nc3cccc(C(=O)O)c3)C2=O)cc1OC | – | inconclusive: 100 µM [inhibitor, single point]
O=C(O)CSc1cc(NS(=O)(=O)c2cccc([N+](=O)[O-])c2)c2ccccc2c1O | – | active: 22.4 µM
O=C1N/C(=C/c2cccn2-c2ccccc2)C(=O)N1Cc1ccc(F)cc1 | inactive: 2.83% | –
COc1cc(C2c3cc4c(cc3OC(NNC(N)=O)C2C)OCO4)cc(OC)c1OC (centres undefined) | – | inconclusive: 70.8 µM [inhibitor, partial curve, poor fit]
Cc1cccc(C)c1NC(=O)COC(=O)c1ccc([N+](=O)[O-])o1 | – | inconclusive: 79.4 µM [inhibitor, partial curve]
O=C(Nc1ccc(N2CCOCC2)cc1N1CCOCC1)c1ccc([N+](=O)[O-])cc1 | – | inconclusive: 100 µM [inhibitor, partial curve, poor fit]
